# Screen size: about 150,000 compounds; about 540 (0.36%) showed an effect of 50% or more. The list shows a part of the results.
# Test system: Plasmodium falciparum
# Experiment: Primary screen in NF54 nanoGlo assay, in single point, at 2uM, 72h; a lower Z score goes with more inhibition
# Type: functional, Erythrocyte
# Details: timepoint 72 hour
Compound,% Inhibition [%],Z score
COc1ccc(CN2CC[C@]3(O)CCN(C(C)=O)C[C@@H]3C2)c(Cl)c1OC,-7,1.33
FC(F)Oc1ccc(-c2nc3c(cnn3Cc3cccs3)[nH]2)cc1,15,-2.35
CC(O)CC1CCCN1C(=O)C1CC=CCC1 (stereo not given),12,-1.04
CC1CC(C)CN(C(=O)C2CCC(=O)N(C)C2c2ccccc2F)C1 (stereo not given),30,-3.97
CC1(C)C(=O)Nc2ccc(C(=O)NCC(C)(C)C3CCOCC3)cc21,5,-0.69
CCCOC[C@H]1CCN(C(=O)c2[nH]c3c(C)ccc(C)c3c2C)C1,-13,1.53
CC1CCCCC1CC(=O)N1CCC(c2ncon2)C1 (stereo not given),-3,0.43
Nc1cc(C(=O)N2CCC[C@@]3(CCC(=O)N(Cc4cccnc4)C3)C2)ccn1,-10,1.13
COc1ncccc1[C@H]1CCN(C(=O)c2c(C)noc2C(C)C)C1,-8,1.55
Cn1c(=O)[nH]c(=O)c2c1nc(N1CCN(c3ccccc3)CC1)n2Cc1cccc2ccccc12,-2,0.32
Cc1n[nH]c(C)c1CNC(=O)[C@H]1CC(=O)N(Cc2ccncc2)C1,-10,1.25
Cc1ccc2c(c1)Oc1cc(Cl)c(S(=O)(=O)N3CCc4ccccc43)cc1C(=O)N2,-11,1.58
Cc1nc(CNCc2c(C)nn(C)c2Cl)cs1,-22,2.18
C/C(=C\c1ccccc1)CN1CCOCC1,-9,1.28
CC(C)(C)c1ccc2oc(CNC(=O)CCC3=NNC(=O)CC3)nc2c1,-16,2.07
Nc1nc(CCC(=O)N[C@H]2CC[C@H]2NC2CCCCCC2)cs1,10,-1.48
CCOc1cc(C(=O)N(C)C)ccc1NCc1ccon1,-9,0.93
C[C@@H](c1cc(F)cc(F)c1)N1CC2(CCNCC2)CCC1=O,-12,2.33
Clc1ccc(Oc2ncnc3[nH]ccc23)cc1Cl,-4,0.51
O=C(Cn1cc(CC2(O)CCC2)nn1)C1(c2ccccc2)CC1,-7,0.93
O=C(c1ccccc1F)N(Cc1nccn1Cc1ccccc1Cl)CC1CC1,20,-3.35
Cc1ccc(CN(CC(O)COC(C)(C)C)CC2CCCO2)o1 (stereo not given),-6,0.91
COc1c(CN2CCC(c3ccn[nH]3)CC2)c(C)nn1C,3,-0.53
Cc1cnn(CCC(=O)NC[C@H](O)c2c(Cl)cccc2Cl)c1,-4,0.77
Cc1ccnc(Oc2ccc(NC(=O)N3CCCc4ccccc4C3)cc2)n1,-9,0.94
Cc1[nH]c2ccc(C(=O)N3CCC(Oc4ccc(CN(C)Cc5cnn(C)c5)cc4)CC3)cc2c1C,1,-0.07
O=C(N[C@@H]1CCC[C@H]1OCc1ccccc1)c1ccn2nnnc2c1,-9,1.77
Cc1nc2cccnc2n1-c1cccc(C(=O)N2CCN(c3ccccc3F)CC2)c1,-4,0.54

Compound,% Inhibition [%],Z score
CN=C(N)N[C@@H](C)c1ccc(C)c(F)c1,9,-1.23
CN(CCc1ncon1)C(=O)[C@]1(C)CCCO1,-14,1.84
COc1ccc(S(=O)(=O)N2CCC3(CC2)C[C@@H](N2CCOCC2)CCO3)cc1,-9,1.13
CC(C)C(=O)N1CC(=O)N(C)[C@@H]1c1ccccc1,4,-0.7
COc1ccc(CCc2n[nH]c(NC(=O)c3cccnc3)n2)cc1,11,-1.62
COCCNC(=O)[C@H]1C[C@H](Oc2ccccc2)CN1S(=O)(=O)Cc1ccccc1,-9,1.7
CC[C@@H](C#N)NC(=O)c1c(C)cccc1C,-6,0.66
CC(C)c1csc(CNC(=O)C2(N(C)C)CCCC2)n1,-17,1.86
Oc1cccc(-c2nccn2C2CCCC2)c1,1,-0.17
O=C(OCC(F)(F)F)N1CCOCC1,1,-0.08
C[C@@H](Cn1cnc2ccccc2c1=O)NCc1csc(N)n1,-17,2.16
CCC1CCC(CNC(=O)CCCn2cncn2)CC1 (stereo not given),-1,0.23
COC(=O)c1cc2n(n1)C[C@@](C)(C(=O)NC1CCC(C)CC1)N(c1ccc(C(C)C)cc1)C2=O (stereo not given in full),-7,1.11
CCCC[C@H]1CN(c2ccccc2OC)C(=O)CN1Cc1coc(C)n1,-3,0.53
CCC(C)(C)NC(=O)c1ccc(S(=O)(=O)N(C)C)cc1,11,-1.32
CCC(CC)n1nc(C)cc1C(=O)N(C)c1cccnc1N(C)C,-8,0.69
Cn1nc2c(c1C(=O)NCC[C@H]1CCc3ccccc31)CS(=O)(=O)CC2,-12,1.87
CCc1nc(CNC(=O)C2CC(O)(C3CCCCC3)C2)co1 (stereo not given),5,-0.58
O=S1(=O)CCCN1CCN1CCCC[C@H]1c1nc2ccccc2o1,4,-0.64
COc1c(C(=O)Nc2ccccc2)oc2ccc(NC(=O)Cc3ccc(Cl)cc3)cc12,-12,1.41
CC(=O)N[C@@H](C)c1cc(C)c(F)c(C)c1,14,-2
CCN(CC)CC(=O)N1CC[C@@]2(CCCN(Cc3cc(OC)ccc3F)C2=O)C1,-9,1.63
COc1ccc(CNC(=O)c2cc3n(n2)CCCN(Cc2ccc(C)cc2)C3=O)cc1,-6,1.06
CC(CN1C(=O)[C@H](C)N(C)C1=O)c1nccs1 (stereo not given in full),-16,2.47
O=S(=O)(NC[C@H](O)c1ccc(-c2cccs2)s1)C1CC1,0,0.03
COc1ccc2ncn(CCCc3ccccn3)c(=O)c2c1,-14,1.82
CC(C)C[C@H]1CC(=O)Nc2c1c(=O)[nH]n2C1CCCCCC1,3,-0.44
